Data published in PubChem BioAssay AID1030 (National Center for Advancing Translational Sciences (NCATS), 2008).
About 16,000 (7.3%) of roughly 220,000 compounds were called active. Inconclusive results, whose numbers are uncertain, are shown with a selection of clear calls. Calls follow the shape of the dose curve; as a rule, active = well fitted inhibition curve with a large enough effect (not every such curve was filed as active); inconclusive = small, poorly fitted or top-dose-only effect, or another doubt; inactive = no such curve, though single readings can be large or run the other way. Potencies of inconclusive entries are left out as doubtful fits.

Molecular target: Aldehyde dehydrogenase 1A1 (Homo sapiens) (UniProt P00352)
Assay: qHTS Assay for Inhibitors of Aldehyde Dehydrogenase 1 (ALDH1A1);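 as to activity, negative = inhibition: plate controls were no enzyme wells and a reference inhibitor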
Details: Purified ALDH1A1, NADH fluorescence, propionaldehyde substrate; series mostly up to 75.3 µM; activity, negative = inhibition: at the top concentration
Potency is read from the fitted curve at half-maximal effect; tags tell the direction and shape of the fitted curve.

Chain of UniProt P00352 (P00352 whole entry, looked up): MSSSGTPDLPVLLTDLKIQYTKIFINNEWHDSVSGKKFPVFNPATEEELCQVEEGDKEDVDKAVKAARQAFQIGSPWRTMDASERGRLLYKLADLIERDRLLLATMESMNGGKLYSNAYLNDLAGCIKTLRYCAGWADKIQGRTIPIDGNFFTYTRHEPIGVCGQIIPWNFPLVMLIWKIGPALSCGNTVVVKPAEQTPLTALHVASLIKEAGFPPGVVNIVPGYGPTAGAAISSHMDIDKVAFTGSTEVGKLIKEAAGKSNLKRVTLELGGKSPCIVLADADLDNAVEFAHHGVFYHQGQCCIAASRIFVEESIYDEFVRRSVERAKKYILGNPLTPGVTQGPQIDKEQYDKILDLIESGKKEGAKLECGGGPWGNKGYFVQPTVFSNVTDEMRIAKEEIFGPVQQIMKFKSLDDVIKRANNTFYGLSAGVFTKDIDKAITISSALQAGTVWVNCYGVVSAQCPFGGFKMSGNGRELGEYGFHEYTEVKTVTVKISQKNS

Row | Compound | Potency | activity, negative = inhibition
1 | O=C1NC2(CCCCCCC2)C(=O)N1Cc1ccc(F)cc1 | inconclusive [inhibitor, partial curve, poor fit] | 
2 | CC(C)C(=O)Nc1ccc(S(=O)(=O)Nc2nccc(/C=C/c3ccccc3)n2)cc1 | inconclusive [inhibitor, partial curve] | 
3 | CCOC(=O)c1cnn(-c2ccccc2)c1NC(=O)c1cccs1 | inconclusive [inhibitor, partial curve] | 
4 | COc1ccc(/C=N/NC(=O)c2cccc([N+](=O)[O-])c2)cc1OC(=O)c1ccc(C)cc1 | inconclusive [inhibitor, full curve] | 
5 | COc1ccc(OC)c(-c2cn(S(=O)(=O)c3ccccc3)nc2N)c1 | inconclusive [inhibitor, partial curve] | 
6 | COC(=O)c1cc(NCc2c(F)cccc2Cl)ccc1N1CCOCC1 | inconclusive [inhibitor, single point] | 
7 | O=C(NC1CCS(=O)(=O)C1)c1cccc(S(=O)(=O)N2CCCCC2)c1 (stereo unspecified) |  | inactive: 3.09%
8 | CCCCOc1ccc(C(=O)Nc2ccc(N3CCN(C(=O)C(C)C)CC3)cc2)cc1 |  | inactive: -2.38%
9 | N#CCCn1c(=O)c(-c2ccc(F)cc2)nc2cnc(OCc3ccccc3)nc21 | inconclusive [inhibitor, partial curve] | 
10 | CC(C)NS(=O)(=O)c1ccc(CCC(=O)NCc2cccnc2)cc1 |  | inactive: 9.45%
11 | COC(=O)c1cccc(NC(=O)C(C)N2C(=O)c3ccccc3C2=O)c1 (stereo unspecified) | inconclusive [inhibitor, single point] | 
12 | CCOc1[nH]c(/N=C/c2ccco2)c(C#N)c1C#N | active: 20 µM | 
13 | COc1ccc2nc(NCCO)[nH]c2c1 | inconclusive [inhibitor, single point] | 
14 | CCN(CC)CCN(Cc1cc2cc(C)ccc2[nH]c1=O)C(=S)NCc1ccco1 | inconclusive [inhibitor, single point] | 
15 | C(=N\c1nccs1)/c1c[nH]c2ccccc12 | active: 12.6 µM | 
16 | COc1ccc(CCC(=O)NCc2ccco2)cc1 | inconclusive [inhibitor, single point] | 
17 | Cc1ccc(-n2nnnc2SCC(=O)N2CCN(C(=O)c3ccco3)CC2)c(C)c1 | inconclusive [inhibitor, single point] | 
18 | COc1cccc(NC2=NCC(=O)N2Cc2cccs2)c1 | inconclusive [inhibitor, single point] | 
19 | COc1nc(C)ccc1-c1noc(-c2ccccn2)n1 |  | inactive: -6.45%
20 | COc1ccc(N2C(=O)CC2(/C=C/c2ccccc2OC)C(=O)NC2CCCC2)cc1 (stereo unspecified) | inconclusive [inhibitor, single point] | 
21 | COc1ccc(C(=O)CSc2nnc(-c3cnccn3)n2Cc2ccco2)cc1 | inconclusive [inhibitor, single point] | 
22 | CCOC(=O)c1ccccc1NC(=O)c1ccc2c(=O)n3c(nc2c1)CCCCC3 | inconclusive [inhibitor, partial curve] | 
23 | CCCn1c(=O)c(C(=O)OCC)c(O)c2cc(Br)ccc21 | inconclusive [inhibitor, single point] | 

Row | Compound | Potency | activity, negative = inhibition
24 | COCCNC(=O)c1ccc(NC(=O)C2(c3ccccc3)CCCC2)cc1 |  | inactive: -2.56%
25 | CCC(CC)C(=O)N(c1ccc(F)cc1)C1C=CS(=O)(=O)C1 (stereo unspecified) |  | inactive: 1.4%
26 | Cc1ccc(CN2CCN(Cc3cc(=O)c4ccccc4[nH]3)CC2CCO)o1 (stereo unspecified) | active: 17.8 µM | 
27 | CCN(CC(=O)Nc1ccccc1Br)C1CCCCC1 | inconclusive [inhibitor, single point] | 
28 | O=C(CSc1n[nH]c(-c2ccccc2O)n1)N1CCOCC1 |  | inactive: -6.18%
29 | O=C(NC1CCCCC1)N(CCO)Cc1cc2cc3c(cc2[nH]c1=O)OCCO3 | inconclusive [inhibitor, single point] | 
30 | FC(F)(F)c1cccc(Cc2noc(CN3CCCC(OCc4ccccn4)C3)n2)c1 (stereo unspecified) | inconclusive [inhibitor, single point] | 
31 | CN(C)C(=O)CNC(=O)C1CCCCC1 |  | inactive: 12.1%
32 | O=C1/C(=C/c2cccnc2)N=C2CCCCCN12 | inconclusive [inhibitor, single point] | 
33 | COc1cccc(NC(=O)C(c2ccccc2)N2CCCC2)c1 (stereo unspecified) |  | inactive: 7.83%
34 | O=C(O)CCCCCn1c(SCc2cc(=O)n3cc(Cl)ccc3n2)nc2ccsc2c1=O | inconclusive [inhibitor, partial curve] | 
35 | Cc1nc2ccccn2c1/C(O)=C1\C(=O)C(=O)N(CCN2CCOCC2)C1c1cccs1 (stereo unspecified) | inconclusive [inhibitor, single point] | 
36 | COC(=O)[C@@]1(Cc2ccc(F)cc2)[C@H]2c3cc(C(=O)N(C)C)n(Cc4ccccc4)c3C[C@H]2CN1C(=O)c1ccccc1 | inactive | 
37 | COc1cc(C2C=C(c3cccs3)Nc3ncnn32)cc(OC)c1OC (stereo unspecified) | inconclusive [inhibitor, single point] | 
38 | CCN(CC)S(=O)(=O)c1cccc(-c2nnc(SCC(N)=O)n2CCc2ccccc2)c1 | inconclusive [inhibitor, single point] | 
39 | O=S(=O)(NC1CCCCC1)c1cccc(-c2nnc(-c3ccccc3)o2)c1 | inconclusive [inhibitor, single point] | 
40 | CCc1nc2oc3ccccc3c(=O)c2c(=O)n1-c1ccccc1 | inconclusive [inhibitor, single point] | 
41 | O=C(NCCOc1ccccc1F)Nc1ccc(Br)cc1 |  | inactive: 8.09%
42 | CC(C)N(Cc1nc(-c2ccc3c(c2)OCO3)no1)Cc1nccn1C |  | inactive: -7.12%
43 | CN(C)C(=O)c1ccc(-c2ccc3ncnc(N4CCOCC4)c3c2)cc1 |  | inactive: -12.8%
44 | COc1ccc(-n2c(N)c(-c3nc4ccccc4n3C)sc2=S)cc1 | inconclusive [inhibitor, single point] | 
45 | Cc1cc(Br)c2c(c1)C(O)(N1CCCCC1C)C(=O)N2 (stereo unspecified) | inconclusive [inhibitor, single point] | 
46 | CCOC(=O)c1ccc([N+](=O)[O-])cc1NC(C)=O |  | inactive: 12.3%
